Read-outs that look alike come from different tables or passages of the source. Ends that are not written are not given here.
System: PBL from HLA-A1 or -A24 positive normal donors
Test: In-vitro primary CTL induction assay
Details: for Net IFN-γ: adjusted for control irrelevant peptide; for +Wells/Total Tested: cultures with positive CTL response of total cultures tested; for Donors +/Total Tested: donors with positive CTL response of total donors tested
[1] = IFN-γ secretion with peptide/without peptide, positive cultures

## CC(C)C[C@H](NC(=O)[C@H](C)NC(=O)[C@H](CO)NC(=O)[C@H](C)NC(=O)[C@@H](NC(=O)[C@H](CC(=O)O)NC(=O)[C@H](CC(C)C)NC(=O)[C@H](CC(C)C)NC(=O)[C@@H](N)CC(=O)O)[C@@H](C)O)C(=O)N[C@@H](Cc1ccc(O)cc1)C(=O)O [core 419]
Positive cultures
  Net IFN-γ: 67 pg/well
  +Wells/Total Tested: 3/144
  Donors +/Total Tested: 1/3

## CC[C@H](C)[C@H](NC(=O)[C@@H](NC(=O)[C@H](Cc1ccccc1)NC(=O)[C@H](CCCNC(=N)N)NC(=O)[C@H](CCCNC(=N)N)NC(=O)[C@H](CC(C)C)NC(=O)[C@H](CS)NC(=O)[C@H](CCSC)NC(=O)[C@H](Cc1c[nH]c2ccccc12)NC(=O)[C@@H](N)CCCNC(=N)N)[C@@H](C)CC)C(=O)O [env 236]
  +Wells/Total Tested: 0/96
  Donors +/Total Tested: 0/2

## CSCC[C@H](NC(=O)[C@H](CCSC)NC(=O)[C@@H](N)Cc1c[nH]c2ccccc12)C(=O)N[C@@H](Cc1c[nH]c2ccccc12)C(=O)N[C@@H](Cc1ccc(O)cc1)C(=O)N[C@@H](Cc1c[nH]c2ccccc12)C(=O)NCC(=O)N1CCC[C@H]1C(=O)N[C@@H](CO)C(=O)N[C@@H](CC(C)C)C(=O)N[C@@H](Cc1ccc(O)cc1)C(=O)O [env 359]
Positive cultures
  Net IFN-γ: 175 pg/well
  +Wells/Total Tested: 1/192
  Donors +/Total Tested: 1/4

## C[C@H](N)C(=O)N[C@@H](CO)C(=O)N[C@@H](Cc1ccccc1)C(=O)N[C@@H](CS)C(=O)NCC(=O)N[C@@H](CO)C(=O)N1CCC[C@H]1C(=O)N[C@@H](Cc1ccc(O)cc1)C(=O)O [pol 166]
Positive cultures
  Net IFN-γ: 60 pg/well
  +Wells/Total Tested: 3/192
  Donors +/Total Tested: 2/4

## CC(C)C[C@H](NC(=O)[C@H](CC(N)=O)NC(=O)[C@@H]1CCCN1C(=O)[C@@H](NC(=O)[C@H](C)NC(=O)[C@H](Cc1ccccc1)NC(=O)[C@H](CCCCN)NC(=O)[C@@H]1CCCN1C(=O)[C@H](Cc1c[nH]c2ccccc12)NC(=O)[C@@H](N)CO)C(C)C)C(=O)O [pol 392]
  +Wells/Total Tested: 0/144
  Donors +/Total Tested: 0/3

## CC(C)C[C@H](NC(=O)[C@H](CO)NC(=O)[C@@H](N)CC(C)C)C(=O)N[C@@H](CC(=O)O)C(=O)N[C@H](C(=O)N[C@@H](CO)C(=O)N[C@@H](C)C(=O)N[C@@H](C)C(=O)N[C@@H](Cc1ccccc1)C(=O)N[C@@H](Cc1ccc(O)cc1)C(=O)O)C(C)C [pol 415]
[1]
  Avg. SI: 57.0
Positive cultures
  Net IFN-γ: 56 pg/well
  +Wells/Total Tested: 1/192
  Donors +/Total Tested: 1/4

## LTFGRETVLEY [core 137]
  Avg. SI: 27.3
  +Wells/Total Tested: 3/144
  Donors +/Total Tested: 3/3
Positive cultures
  Net IFN-γ: 100 pg/well

## LWFHISCLTF [core 101]
[1]
  Avg. SI: 2.8
Positive cultures
  Net IFN-γ: 248 pg/well
  +Wells/Total Tested: 2/96
  Donors +/Total Tested: 1/2

## RFSWLSLLVPF [env 332]
[1]
  Avg. SI: 2.5
Positive cultures
  Net IFN-γ: 186 pg/well
  +Wells/Total Tested: 1/96
  Donors +/Total Tested: 1/2
